# Measured values reported in the supplement of paper PMC11417369.
# ± gives the standard deviation of the averaged measurements. Some of the results follow.
# Tested on: PfAP2-EXP AP2 domain (GST-tagged)
# Experiment: gcPBM binding intensity (ln(normalized median fluorescence intensity)); higher = stronger DNA binding
# Procedure, shortened: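 Binding intensity is the highest Masliner-normalised natural-log median intensity over replicate spots in either probe orientation. To obtain it, GST-tagged P. falciparum DNA-binding domains made in E. coli were incubated for 1 h on an Agilent 4 × 180k array of primer-extended double-stranded 36-bp intergenic genomic probes plus negative controls. Detection used Alexa488 anti-GST antibody with scanning at 488 nm.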
row,Sequence,gcPBM binding intensity (ln)
1,CACCCTTTACACAAGGTGCATACTTTATTATATTTT [GTGCAC_site9778],8.875 ± 0.049
2,TTTTTCTTTCTTTCTTTTTTAATATTACAAATGTAT [XGTACX_negctrl_site267],8.72 ± 0.65
3,TTATTAAAACAAAATGTACACACATATAATTTAATG [CACACA_site8193],8.38 ± 0.3
4,TTCAATGCATGTCCATGTACATATAAAAAAAAATAC [XGTACX_site1597],8.93 ± 0.34
5,AAAGTAGAATATCCCCTACACACCCAAATAATTTAC [CACACA_site1255],9.37 ± 0.79
6,TCCACAAAGCATGTAACACACAACATATAAGACATA [CACACA_site972],8.78 ± 0.46
7,ACATCATAGAAAAATTGATATATATATATATATATA [CACACA_negctrl_site130],10 ± 0.53
8,AACCACATACCTATAACACACATATACAATATAGAT [CACACA_site7023],8.59 ± 0.49
9,TATTAAAAAGAGGTGACACACACATATAAATCTAAA [CACACA_site9243],8.57 ± 0.47
10,TTAAAAAAATTAATATGTACATATATTTATATATAT [XGTACX_site5317],8.41 ± 0.2
11,TATATATTTTATTTATGTACGAAAATAAATTAAATT [XGTACX_site3628],8.27 ± 0.38
12,TCCATTGTCACCTTTTGTACTTAAATTTTTTCCTCC [XGTACX_site1573],9.05 ± 0.52
13,CTTTTTTTTTTTTTTTGTCCGTATGAGGGACCTATA [XGTACX_site8839],8.45 ± 0.28
14,ATAAAAAAATCAGACACACACACGTAAACACATACA [CACACA_site5529],8.76 ± 0.57
15,CAAAAATTACCCTTGTGTACACATATATTATATGTA [XGTACX_site1124],8.69 ± 0.18
16,TGAGATAAATGTGGTAGTACATTTTTTTTATATATA [XGTACX_site1918],8.2 ± 0.26
17,ATATCATCTTCTCTATCATTTTTTTTTTTTTTTTTT [CACACA_negctrl_site1220],8.72 ± 0.4
18,TTAATTATGTTTTGGTGTACAATAAATTGAATAGAT [XGTACX_site3306],8.55 ± 0.31
19,CTACTTAATATTTGTACACACATATTTAACCTACTA [CACACA_site5725],8.76 ± 0.33
20,ATATATATTTATATATGTACATATTTTTGTGTATTT [XGTACX_site1183],8.55 ± 0.43
21,ATGTTATAATTTAGTGTGCACATATTAAGAGGAACA,9.24 ± 0.23
22,AATAATAATAGAAACACACACACATTTTTAATAATA [CACACA_site1217],8.55 ± 0.49

row,Sequence,gcPBM binding intensity (ln)
1,ATATATATATATATATGTACATAATAATTTTATAAA [XGTACX_site5105],10.2 ± 0.33
2,AAAATAATTTTATAGTTGCACTATATCGTATACAAT,8.72 ± 0.26
3,ATATATTTTATACATACACACATATATATATTTTTT [CACACA_site3940],8.66 ± 0.33
4,TGATTAAATCAAGAAAGTACAAAATGAAATATATAA [XGTACX_site4319],8.84 ± 0.45
5,TAAAGTGTAAAATTCACACACATATAAATAAATATA [CACACA_site6765],8.44 ± 0.54
6,TTTAAAAAAAAAAATACACACATAAAAGTTTTCAAA [CACACA_site6471],8.29 ± 0.45
7,TACAAAAGCTATAACATTCACCACATTATAAAAATA [CACACA_negctrl_site1112],8.29 ± 0.4
8,TTACAAATATTATAATGTACCCATTTTTTTTGCCTT [XGTACX_site6612],8.47 ± 0.39
9,TTTTCATTAAGATACTTATAATAGTTTATTAGTAAA [CACACA_negctrl_site586],7.92 ± 0.33
10,AAAATATATAAATATACATGCATAATTAATAGTATA [TGCATGCA_site804],8.66 ± 0.39
11,AATTCAAAGAAAAACTGTACGTGTAGCAAACATCCT [XGTACX_site599],8.66 ± 0.47
12,TAATATGAAGATGGCAGTACTCTAGTCAATTTTTAC [XGTACX_site5375],8.53 ± 0.38
13,TTTTTAAAAATATACACACACAGATATTATATATAT [CACACA_site786],8.73 ± 0.13
14,ATATATGTTCCTTTTACACACATAATCTTTTTTTTA [CACACA_site2661],8.91 ± 0.42
15,AAAATATAATATAATGCACACATAAAAAAAAAAAAA [CACACA_site7989],8.52 ± 0.49
16,ATATTGTGTTATAAATGTACACAATTTCCTTTCATA [XGTACX_site7481],8.48 ± 0.22
17,GGGGACGCGGGTGGGGGTACTCACACTATGCAAAAT [XGTACX_site7745],10.3 ± 0.4
18,ATATATATATGTATGTATATATATATATATGTTTGA [GTGCAC_negctrl_site561],9.465 ± 0.078
19,GTATCAATAAAAAACAGTACATATATAATATATTTA [XGTACX_site1083],8.36 ± 0.21
20,TTCATATAGAATTGTACACACAAAAACGACATTGTG [CACACA_site7061],8.79 ± 0.38
21,AAAAAAAAGGAAATAACACACATGTATATATCTATA [CACACA_site6856],8.32 ± 0.42
22,GGGGGCTTTTATAAAAGTACAAAATGAATAAAAATT [XGTACX_site2393],9.62 ± 0.38
